Test results: the supplement of paper PMC9046079
Counter-ions that a name gives are not always drawn. ± gives the standard deviation of the averaged measurements. This is one part of the list.

Key:
[1] = system: murine small intestinal organoids (ENR+CD Paneth differentiation); experiment: cellular ATP (CellTiter-Glo 3D) relative to plate median (log10 fold change); higher = more viable cells; conditions: 6 d
[2] = system: murine small intestinal organoids (ENR+CD Paneth differentiation); experiment: carbachol-stimulated secreted lysozyme activity relative to plate median (log10 fold change); higher = more Paneth cell lysozyme secretion; conditions: 6 d, carbachol 10 µM
[3] = system: murine small intestinal organoids (ENR+CD Paneth differentiation); experiment: basal (non-stimulated) secreted lysozyme activity relative to plate median (log10 fold change); higher = more Paneth cell lysozyme secretion; conditions: 6 d
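Wherever basal (non-stimulated) secreted lysozyme activity relative to plate median is given: ISC-enriched organoid precursors grown as 2.5D pseudo-monolayer on Matrigel, compound given on day 0 and day 3, plate values LOESS-normalized before median fold change, three murine donors.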
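Wherever cellular ATP (CellTiter-Glo 3D) relative to plate median is given: 2.5D pseudo-monolayer culture of ISC-enriched organoids partly embedded atop Matrigel, compound added on day 0 and again on day 3, per-plate LOESS correction before median fold change.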

Row | SMILES | cellular ATP (log10) ([1]; 0.08 µM) | cellular ATP (log10) ([1]; 0.4 µM) | cellular ATP (log10) ([1]; 2 µM) | cellular ATP (log10) ([1]; 10 µM) | carbachol-stimulated secreted lysozyme activity (log10) ([2]; 0.08 µM) | carbachol-stimulated secreted lysozyme activity (log10) ([2]; 0.4 µM) | carbachol-stimulated secreted lysozyme activity (log10) ([2]; 2 µM) | carbachol-stimulated secreted lysozyme activity (log10) ([2]; 10 µM) | basal (log10) ([3]; 0.08 µM) | basal (log10) ([3]; 0.4 µM) | basal (log10) ([3]; 2 µM) | basal (log10) ([3]; 10 µM)
1 | Cc1nnc(C(=O)NC(C)(C)c2nc(C(=O)NCc3ccc(F)cc3)c(O)c(=O)n2C)o1 [Raltegravir (MK-0518)] | 0.181 ± 0.23 | 0.128 ± 0.1 | 0.223 ± 0.26 | 0.0503 ± 0.47 | 0.172 ± 0.024 | -0.0109 ± 0.087 | 0.079 ± 0.034 | 0.081 ± 0.083 | 0.0886 ± 0.061 | 0.0476 ± 0.081 | 0.0417 ± 0.062 | 0.0172 ± 0.095
2 | CC(C)c1noc(N2CCC(COc3ccc(-c4ccc(S(C)(=O)=O)cc4)nc3)CC2)n1 | 0.161 ± 0.13 | 0.192 ± 0.22 | 0.224 ± 0.057 | 0.196 ± 0.15 | 0.179 ± 0.069 | 0.144 ± 0.054 | 0.0925 ± 0.1 | 0.0807 ± 0.18 | 0.0782 ± 0.07 | 0.0498 ± 0.056 | 0.0276 ± 0.083 | 0.0199 ± 0.12
3 | C=CC(=O)N1CCC[C@@H](n2nc(-c3ccc(Oc4ccccc4)cc3)c3c(N)ncnc32)C1 | -0.0274 ± 0.28 | -0.466 ± 0.61 | -0.521 ± 0.35 | -0.931 ± 0.82 | -0.162 ± 0.026 | -0.229 ± 0.054 | -0.354 ± 0.13 | -0.392 ± 0.082 | -0.0711 ± 0.026 | -0.141 ± 0.078 | -0.202 ± 0.11 | -0.199 ± 0.093
4 | O=C1NC(=O)C(c2ccccc2[N+](=O)[O-])=C1Nc1ccc(O)c(Cl)c1 | 0.222 ± 0.25 | 0.06 ± 0.2 | 0.078 ± 0.39 | 0.264 ± 0.28 | 0.104 ± 0.24 | 0.00425 ± 0.18 | -0.016 ± 0.23 | 0.00789 ± 0.14 | 0.113 ± 0.16 | 0.0613 ± 0.087 | 0.00584 ± 0.11 | 0.0317 ± 0.07
5 | C[C@H]1COC2(CCN(c3nc(=O)c4cc(C(F)(F)F)cc([N+](=O)[O-])c4s3)CC2)O1 (racemic) [BTZ043 Racemate] | 0.497 ± 0.34 | 0.545 ± 0.4 | 0.0628 ± 0.21 | 0.327 ± 0.24 | 0.229 ± 0.21 | 0.212 ± 0.17 | 0.00836 ± 0.002 | -0.00185 ± 0.16 | 0.131 ± 0.088 | 0.186 ± 0.14 | 0.0891 ± 0.055 | 0.1 ± 0.15
6 | CC(=O)Nc1nc2c(Oc3cc(-c4ccc(C(F)(F)F)cc4)ncn3)cccc2s1 | 0.161 ± 0.13 | 0.113 ± 0.39 | 0.112 ± 0.11 | 0.0565 ± 0.15 | -0.0355 ± 0.033 | 0.016 ± 0.086 | 0.00539 ± 0.0044 | 0.28 ± 0.14 | 0.0204 ± 0.073 | 0.0599 ± 0.1 | -0.00584 ± 0.011 | 0.0307 ± 0.14
7 | COc1ccccc1N1CCN(CC(O)COc2cccc3ccccc23)CC1 (stereo unspecified) [Naftopidil] | -0.0389 ± 0.11 | -0.161 ± 0.12 | -0.179 ± 0.17 | -0.132 ± 0.15 | -0.0818 ± 0.014 | -0.178 ± 0.053 | -0.0914 ± 0.024 | -0.106 ± 0.027 | -0.0373 ± 0.15 | -0.0819 ± 0.063 | -0.0197 ± 0.055 | -0.0733 ± 0.027
8 | CCc1c(C(=O)NCCc2ccc(N3CCCCC3)cc2)[nH]c2ccc(Cl)cc12 | 0.278 ± 0.29 | 0.0723 ± 0.079 | 0.362 ± 0.19 | 0.27 ± 0.1 | 0.157 ± 0.24 | 0.0444 ± 0.17 | 0.0386 ± 0.17 | 0.00914 ± 0.25 | 0.122 ± 0.13 | 0.0511 ± 0.022 | 0.0785 ± 0.051 | 0.0285 ± 0.037
9 | C[C@]12C=CC(=O)N[C@@H]1CC[C@@H]1[C@@H]2CC[C@]2(C)[C@@H](C(=O)Nc3cc(C(F)(F)F)ccc3C(F)(F)F)CC[C@@H]12 [Dutasteride] | 0.0572 ± 0.11 | -0.266 ± 0.33 | -0.098 ± 0.33 | -0.0572 ± 0.12 | 0.0436 ± 0.074 | -0.0561 ± 0.17 | -0.121 ± 0.18 | -0.192 ± 0.067 | 0.0652 ± 0.14 | 0.00601 ± 0.098 | -0.105 ± 0.12 | -0.0918 ± 0.028
10 | Oc1ncnc2[nH]ncc12 [Allopurinol] | 0.212 ± 0.18 | -0.098 ± 0.13 | -0.162 ± 0.21 | -0.454 ± 0.47 | 0.0248 ± 0.012 | -0.15 ± 0.11 | -0.086 ± 0.036 | -0.161 ± 0.14 | 0.0193 ± 0.024 | -0.0361 ± 0.08 | -0.0041 ± 0.024 | -0.0508 ± 0.06
11 | COc1cc(Nc2c(C#N)cnc3cc(OCCCN4CCN(C)CC4)c(OC)cc23)c(Cl)cc1Cl [Bosutinib (SKI-606)] | 0.628 ± 0.15 | 0.302 ± 0.22 | -0.169 ± 0.27 | -0.668 ± 0.34 | 0.308 ± 0.04 | 0.263 ± 0.0034 | -0.117 ± 0.05 | -0.287 ± 0.043 | 0.213 ± 0.052 | 0.13 ± 0.11 | -0.0488 ± 0.05 | -0.115 ± 0.081
12 | CC(C)CCN1c2nc(Nc3cc(F)c(O)c(F)c3)ncc2N(C)C(=O)C1C (stereo unspecified) | 0.186 ± 0.09 | 0.029 ± 0.18 | -0.0116 ± 0.31 | -0.7 ± 0.34 | 0.114 ± 0.056 | 0.163 ± 0.063 | 0.0484 ± 0.044 | -0.44 ± 0.088 | 0.141 ± 0.041 | 0.126 ± 0.051 | -0.0659 ± 0.057 | -0.285 ± 0.072
13 | Cc1cccc(CC(=O)N2CCc3c2ccc(-c2cn(C)c4ncnc(N)c24)c3F)n1 | 0.0678 ± 0.12 | 0.115 ± 0.074 | 0.0825 ± 0.15 | 0.119 ± 0.1 | -0.00469 ± 0.11 | 0.115 ± 0.26 | 0.0377 ± 0.06 | 0.175 ± 0.36 | -0.0306 ± 0.059 | -0.0455 ± 0.027 | -0.0335 ± 0.093 | -0.0118 ± 0.09
14 | CC1=C(/C=C/C(C)=C/C=C/C(C)=C\C(=O)O)C(C)(C)CCC1 [Isotretinoin] | 0.411 ± 0.19 | 0.404 ± 0.26 | 0.253 ± 0.15 | 0.139 ± 0.3 | 0.136 ± 0.058 | 0.0825 ± 0.095 | 0.081 ± 0.0075 | 0.0859 ± 0.082 | 0.125 ± 0.11 | 0.0467 ± 0.092 | 0.0664 ± 0.1 | 0.0824 ± 0.059
15 | O=C(/C=C\n1cnc(-c2cc(C(F)(F)F)cc(C(F)(F)F)c2)n1)NNc1cnccn1 | 0.21 ± 0.12 | -0.657 ± 0.51 | -0.894 ± 0.28 | -1.88 ± 0.45 | 0.321 ± 0.066 | -0.258 ± 0.32 | -0.486 ± 0.049 | -0.529 ± 0.011 | 0.2 ± 0.14 | -0.266 ± 0.088 | -0.28 ± 0.12 | -0.284 ± 0.11
16 | O=c1cc(N2CCOCC2)oc2c1ccc1ccccc12 | 0.0963 ± 0.082 | 0.104 ± 0.13 | 0.107 ± 0.11 | -0.119 ± 0.37 | -0.0332 ± 0.13 | -0.0585 ± 0.057 | -0.117 ± 0.18 | -0.195 ± 0.043 | 0.0228 ± 0.087 | 0.0228 ± 0.12 | -0.0582 ± 0.12 | -0.158 ± 0.019
17 | c1ccc(CC2=NCCN2)cc1 [Tolazoline HCl] | -0.0453 ± 0.53 | 0.25 ± 0.22 | 0.0771 ± 0.065 | -0.0294 ± 0.075 | 0.0724 ± 0.19 | 0.0481 ± 0.12 | -0.0254 ± 0.018 | -0.066 ± 0.071 | 0.131 ± 0.11 | 0.0861 ± 0.14 | 0.0618 ± 0.13 | 0.0834 ± 0.29
18 | O=C(Nc1ccccc1Br)N[C@@H]1CCN(c2ccc(C(F)(F)F)cn2)C1 | 0.121 ± 0.24 | -0.0693 ± 0.099 | -0.052 ± 0.063 | -0.0924 ± 0.1 | -0.0237 ± 0.0041 | -0.0688 ± 0.13 | -0.115 ± 0.021 | -0.0222 ± 0.0007 | 0.0723 ± 0.13 | -0.051 ± 0.052 | -0.0656 ± 0.089 | -0.0119 ± 0.0033
